# Results published in the BET-seq Pho4 binding data (Le et al. 2018).
# Some of the results follow. These are noisy estimates, calculated here from bound and input reads.
# Molecular target: T1, Pho4 (S. cerevisiae) (UniProt P07270)
# T1 sequence: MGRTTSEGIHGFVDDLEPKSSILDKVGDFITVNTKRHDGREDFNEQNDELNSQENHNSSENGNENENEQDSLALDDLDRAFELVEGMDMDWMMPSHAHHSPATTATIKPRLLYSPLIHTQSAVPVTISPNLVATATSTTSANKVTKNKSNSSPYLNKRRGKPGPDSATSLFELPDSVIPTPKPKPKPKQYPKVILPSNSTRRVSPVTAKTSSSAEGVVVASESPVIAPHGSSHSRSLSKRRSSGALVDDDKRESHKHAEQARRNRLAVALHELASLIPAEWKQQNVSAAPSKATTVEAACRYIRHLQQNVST
# Assay: relative binding free energy (BET-seq); higher = weaker binding
# Settings: reference: library average
row,Sequence,relative binding free energy [kcal/mol]
1,ATTGACACGTGAGGTA,0.06
2,TGAAGCACGTGGACTG,-0.07
3,GATGGCACGTGTGATA,0.19
4,TGTCGCACGTGCGATG,-0.05
5,GATGGCACGTGTGCTG,-0.09
6,TGGTTCACGTGTGTCG,0.29
7,GAATTCACGTGAACGT,0.57
8,GGTAGCACGTGGAGTG,-0.04
9,GGTCACACGTGTGAAG,0.23
10,AGTTACACGTGTTCGA,0.13
11,CTCGTCACGTGTAAGT,0.24
12,TAAGCCACGTGGGTAT,-0.12
13,GATGGCACGTGGTTCT,-0.2
14,TTGGGCACGTGTGCAG,-0.19
15,ATTGGCACGTGTTCTT,-0.03
16,ATGTTCACGTGAGGGT,0.35
17,CAGTCCACGTGGGGGG,-0.11
18,CTTAACACGTGTTGGG,0.02
19,TGTACCACGTGGAGAG,0
20,GAAGGCACGTGATGTA,0.11
21,TGGCTCACGTGATGGG,0.23
22,GTCTGCACGTGATGGA,0.15
23,TGTTCCACGTGGGAGT,0
24,GTCTGCACGTGTTGTG,0.12
25,AGTGTCACGTGTTGAA,0.12
26,ATGAACACGTGTTGTT,-0.11

row,Sequence,relative binding free energy [kcal/mol]
1,TGGCGCACGTGCCGTG,-0.14
2,TTTCTCACGTGACTGT,0.29
3,TGTAGCACGTGGTGGG,-0.19
4,AGTAGCACGTGGAGAG,-0.02
5,AAAAGCACGTGTATTA,0.1
6,ATATACACGTGGTGAT,-0.21
7,CTAGTCACGTGGAGAG,0.03
8,TTAAACACGTGTGTGC,0.04
9,TATTTCACGTGCCTTG,0.12
10,CTAATCACGTGGTAGA,0.15
11,GCTATCACGTGGGAGT,0.14
12,TGTCTCACGTGAGGTA,0.28
13,TAATTCACGTGTAGAT,0.54
14,CTTAACACGTGTTAGG,-0.08
15,AGTATCACGTGTACGG,0.02
16,TTTTCCACGTGTAGTC,0.29
17,ATATGCACGTGAGTCG,0.23
18,AAAGGCACGTGAAAGG,0.07
19,TGGCACACGTGGGGAA,0.01
20,GGTGTCACGTGCATGT,0.17
21,CTGGACACGTGGTATG,-0.14
22,GTAGGCACGTGTTTGG,0.02
23,TTCATCACGTGTTTTG,0.2
24,GGTCTCACGTGAGAAG,0.41
25,TAGTTCACGTGGCCGT,0.16
26,CGGAGCACGTGTGAGA,0.09

row,Sequence,relative binding free energy [kcal/mol]
1,TAGGCCACGTGGAGGG,-0.15
2,ATTAGCACGTGGTTTG,-0.05
3,TGGGGCACGTGAATGT,0.12
4,TGGTTCACGTGCTATT,0.18
5,ATTTGCACGTGGTAAG,-0.1
6,GTTGCCACGTGGTTGG,-0.07
7,GGTGACACGTGTGCTG,0.1
8,GGTGTCACGTGGAGTC,0.1
9,TAGATCACGTGGGCTT,0.06
10,GTTTTCACGTGGTGGG,0.31
11,GTGGCCACGTGTGCTT,0.03
12,TCTATCACGTGATGTG,0.19
13,TATCTCACGTGGAGTG,0.27
14,TTTTACACGTGGGAGC,0.12
15,GGGGTCACGTGGGGGC,0.06
16,GTCGGCACGTGTACGG,0.05
17,TGTGGCACGTGATTCT,0.14
18,GGTATCACGTGGGGGG,0.02
19,AGCAGCACGTGGGTGA,-0.2
20,CTTATCACGTGGGTTC,-0.01
21,TTTATCACGTGGGTAC,0.05
22,TATAACACGTGGTCGG,-0.17
23,TCGGGCACGTGACGGG,-0.01
24,GTGACCACGTGATGTG,0.11
25,TGGTTCACGTGGCATT,0.14
26,TTTTGCACGTGCGCGT,-0.12

row,Sequence,relative binding free energy [kcal/mol]
1,TCTTTCACGTGGTGAG,0.3
2,CGTTGCACGTGTTCAT,0.02
3,TAGAGCACGTGGTTAG,-0.05
4,ACACGCACGTGGAGGG,-0.13
5,GGGCGCACGTGGTGCA,-0.11
6,GGTTTCACGTGTGCGC,0.26
7,TTGTTCACGTGTATTC,0.31
8,GTTATCACGTGTGGGT,0.3
9,CTTTGCACGTGCTGGT,-0.11
10,TTGTTCACGTGGTGAA,0.14
11,ACATGCACGTGGTCGG,-0.09
12,GTCTTCACGTGGGTGC,0.22
13,TGTGTCACGTGTCAGT,-0.09
14,TAATACACGTGGCGTT,-0.09
15,ACTGTCACGTGTTAAG,0.12
16,TTTCGCACGTGACTTG,0.06
17,GTTTTCACGTGAGGGA,0.41
18,AGTAGCACGTGGCAGG,-0.16
19,GTCTACACGTGTTTTG,0.14
20,ATAGGCACGTGGTAGT,-0.15
21,AGGTCCACGTGAGATG,0.24
22,AGGGGCACGTGTTACG,0.01
23,ATTAGCACGTGGTCAG,-0.31
24,CTATTCACGTGTTGCG,0.22
25,TGTATCACGTGTAAGG,0.16
26,CTTGGCACGTGGTTTC,-0.03

row,Sequence,relative binding free energy [kcal/mol]
1,CAGTTCACGTGGGAGT,0.18
2,ATGTTCACGTGAGTTT,0.52
3,TTGTGCACGTGTGCAA,0.02
4,GTGTTCACGTGTATAC,0.29
5,GCAAGCACGTGGGTGT,-0.28
6,ATGGGCACGTGAGAAT,0.1
7,TTCAGCACGTGTGGCT,-0.12
8,CTTGGCACGTGTGGTG,0.01
9,TTGAACACGTGGCGGG,-0.01
10,TGGTACACGTGGTTCG,0.03
11,GAAGTCACGTGTATTT,0.2
12,GTAGTCACGTGTGACT,0.24
13,ATGCGCACGTGGGAAG,-0.19
14,ACGTGCACGTGTTGTA,-0.2
15,GGTTTCACGTGAAGTT,0.45
16,AGGAACACGTGTTTAG,0
17,GAGAGCACGTGTGGGG,-0.01
18,CGGGGCACGTGCATAG,-0.17
19,TTTAACACGTGACGTA,0.29
20,GCCGTCACGTGAGGGT,0.26
21,GGGCACACGTGTGGCT,0.14
22,TTTGGCACGTGTTAGT,-0.03
23,ATGGGCACGTGAAAGT,0.07
24,TGTACCACGTGGTTTC,-0.01
25,GTATTCACGTGTAGGC,0.23
26,GATTGCACGTGCAGTT,0.03

row,Sequence,relative binding free energy [kcal/mol]
1,CGAGGCACGTGGGCAG,-0.29
2,CGGTGCACGTGCGTGT,-0.05
3,AATGTCACGTGGGAGG,-0.1
4,TTCTGCACGTGCGTTT,0.08
5,ATGTGCACGTGGCTTG,0.02
6,GAGGGCACGTGGATTA,0.07
7,TAGGTCACGTGTTTTG,0.25
8,ATTCGCACGTGGTGTA,-0.23
9,ATTTGCACGTGTTCGA,0.01
10,GATCGCACGTGCTGTG,0.01
11,GAGGGCACGTGGCATT,-0.26
12,CGGTTCACGTGGTTAT,0.32
13,TCAATCACGTGGATGT,0.21
14,GATCGCACGTGTGGTA,0.13
15,TGGTTCACGTGACGAT,0.38
16,CGGCTCACGTGCGGGG,0.1
17,GTTAACACGTGAGGAA,0.42
18,TATCGCACGTGGTAGT,-0.1
19,TGATGCACGTGGAGGC,-0.17
20,TGGGACACGTGGACGG,0.14
21,GACGGCACGTGGCGTT,-0.03
22,GGGAGCACGTGTCGAG,0.03
23,TAGGGCACGTGGGAAG,-0.11
24,TTCTGCACGTGGGGCA,-0.2
25,AAAGGCACGTGGGGGG,-0.17
26,GTGGACACGTGAGTAA,0.08

row,Sequence,relative binding free energy [kcal/mol]
1,TGGAGCACGTGTGGCG,-0.07
2,GGGTGCACGTGAATTT,0.21
3,GAGTTCACGTGGGCTT,0.32
4,GAGTGCACGTGATGAG,0.32
5,GGGGTCACGTGCTGGT,0.05
6,AGGTTCACGTGAACTT,0.33
7,CTAGGCACGTGGTGGC,-0.22
8,ATGCGCACGTGGGTTT,-0.14
9,TTGGTCACGTGATCGG,0.19
10,TGGTACACGTGTGTGT,0.04
11,TGTAACACGTGAGATG,0.28
12,AGCGTCACGTGGGAGT,0.18
13,GCATTCACGTGGGATT,0.22
14,GTTGGCACGTGAATGG,0.31
15,AATTTCACGTGGTACG,0.14
16,TTTTACACGTGGGGCC,0.1
17,GGTATCACGTGGAGGT,0.24
18,ATTTCCACGTGTTTAA,0.09
19,TTGTGCACGTGTTGCC,0.02
20,ACTGCCACGTGGGGGG,-0.25
21,TTGAACACGTGGGAAT,0.14
22,TGGCTCACGTGGGGCA,0.14
23,GAAGTCACGTGGGATA,0.02
24,CTGGTCACGTGAGGAA,0.43
25,ATCTGCACGTGTCGGG,-0.1
26,GTTTTCACGTGTCGAG,0.23

row,Sequence,relative binding free energy [kcal/mol]
1,AGTATCACGTGTTGGT,0.16
2,AGGGCCACGTGACGGG,0.02
3,ATTATCACGTGATAGA,0.25
4,CAGTGCACGTGTTTTA,-0.08
5,GTGTACACGTGGTTCA,-0.03
6,ATTGGCACGTGATTGG,-0.04
7,GGTGGCACGTGGAGCC,0.02
8,GGAGGCACGTGAGAGA,0.18
9,GTTAACACGTGGTTCG,-0.03
10,GGTTGCACGTGCGGAG,0.08
11,AGTATCACGTGCTGGA,0.23
12,GTCGTCACGTGTTTGG,0.12
13,TCGGGCACGTGTGGTA,-0.03
14,AAATTCACGTGTTCGT,0.19
15,TAGTTCACGTGTGGTT,0.32
16,GGGCTCACGTGGCTGG,0.29
17,TACGTCACGTGGTAGT,0.1
18,TGGAGCACGTGCGTGG,-0.13
19,TTGGGCACGTGGTGCT,-0.27
20,TCAATCACGTGTGGTT,0.09
21,ATCGGCACGTGGTTAG,-0.12
22,GTAGGCACGTGGTGCC,-0.03
23,CGGGTCACGTGAAGGG,0.39
24,TAATTCACGTGTATGG,0.29
25,GGTTTCACGTGTTGCA,0.3
26,ATTTGCACGTGTTCCG,0.07

row,Sequence,relative binding free energy [kcal/mol]
1,AGCATCACGTGAGGGT,0.13
2,GTGGTCACGTGGTTCG,0.18
3,TCTATCACGTGGGTTT,0.08
4,GTGGTCACGTGATTAA,0.31
5,TATCTCACGTGGGAGG,0.2
6,CGGTTCACGTGAGAGG,0.47
7,AAGTGCACGTGAAGGT,0.13
8,TTGGGCACGTGGGGAA,-0.23
9,TAACTCACGTGTGTGA,0.38
10,GGGGCCACGTGGTATA,-0.06
11,TGGGACACGTGTTATG,0.16
12,ATAGTCACGTGTGGGT,0.14
13,GGATTCACGTGCATTG,0.32
14,TTTATCACGTGGATCG,0.18
15,TTGAACACGTGGCATG,-0.03
16,GTGGTCACGTGTTATC,0.25
17,CTAGGCACGTGGGATA,-0.15
18,TTTCGCACGTGTTGTT,-0.07
19,CTGTGCACGTGATGTT,-0.05
20,CGAGTCACGTGTTAGT,0.09
21,TTATGCACGTGTCTTT,-0.09
22,ATTGGCACGTGAGGTT,0.2
